Experimental data published in PubChem BioAssay (NCI).
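All cell lines were grown in 96-well plates and treated with compound for 48 hours. GI50 is the concentration that inhibits growth by half. TGI is the concentration that stops growth completely.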

tested on: NCI-H322M lung; assay: DTP human tumour cell line panel, 48 h

In order of rising GI50:
1. Nc1cccnc1/C=N/NC(=S)NCCNC(=O)c1ccc(-n2nc(-c3ccccc3O)nc2-c2ccccc2O)cc1  0.649 µM
2. COc1ccc(C(=O)/C=C/c2cc(C(F)(F)F)cc(C(F)(F)F)c2)cc1S(N)(=O)=O  1.58 µM
3. Cc1nn(-c2ccccc2)c2nc(C)n(CC(=O)N/N=C/c3ccccc3O)c(=O)c12  3.47 µM
4. COc1ccc(-c2cc(C(=O)N=Nc3c(O)[nH]c4ccccc34)c3ccccc3n2)cc1  5.43 µM
5. Cc1ccc(-c2cc(C(=O)N=Nc3c(O)[nH]c4ccc(F)cc34)c3ccccc3n2)cc1  12.2 µM
6. COc1ccc(-c2cc(C(=O)N=Nc3c(O)[nH]c4ccc(Cl)cc34)c3ccccc3n2)cc1  15.1 µM
7. Clc1ccc(-c2nc3ccc(-c4nnc(SCc5ccccc5)o4)cc3[nH]2)cc1  18.8 µM

First: Nc1cccnc1/C=N/NC(=S)NCCNC(=O)c1ccc(-n2nc(-c3ccccc3O)nc2-c2ccccc2O)cc1
Second: Cc1nn(-c2ccccc2)c2nc(C)n(CC(=O)N/N=C/c3ccccc3O)c(=O)c12
The TGI of the first is higher: over 100 µM for the first, 41.6 µM for the second.

Compared with `COc1ccc(-c2cc(C(=O)N=Nc3c(O)[nH]c4ccc(Cl)cc34)c3ccccc3n2)cc1`, `COc1ccc(-c2cc(C(=O)N=Nc3c(O)[nH]c4ccccc34)c3ccccc3n2)cc1` is 1.6-fold lower in TGI: 30 µM for the first, 18.6 µM for the second.

First: Cc1ccc(-c2cc(C(=O)N=Nc3c(O)[nH]c4ccc(F)cc34)c3ccccc3n2)cc1
Second: Clc1ccc(-c2nc3ccc(-c4nnc(SCc5ccccc5)o4)cc3[nH]2)cc1
The TGI of the first is lower: 31.3 µM for the first, over 100 µM for the second.

`COc1ccc(C(=O)/C=C/c2cc(C(F)(F)F)cc(C(F)(F)F)c2)cc1S(N)(=O)=O` gave a TGI of 3.24 µM.
